About 14,000 (4.5%) of roughly 310,000 compounds showed an effect of 50% or more. Effects have a minus sign here. The list shows a part of the results.
biological target: human ether-à-go-go-related gene (hERG) potassium channel (human, UniProt Q12809); assay: primary screen, population patch clamp on CHO cells stably expressing hERG
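Also: peak tail current of the secondary pulse compared with the same well before compound.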

Sequence of human ether-à-go-go-related gene (hERG) potassium channel (Q12809 whole entry, looked up): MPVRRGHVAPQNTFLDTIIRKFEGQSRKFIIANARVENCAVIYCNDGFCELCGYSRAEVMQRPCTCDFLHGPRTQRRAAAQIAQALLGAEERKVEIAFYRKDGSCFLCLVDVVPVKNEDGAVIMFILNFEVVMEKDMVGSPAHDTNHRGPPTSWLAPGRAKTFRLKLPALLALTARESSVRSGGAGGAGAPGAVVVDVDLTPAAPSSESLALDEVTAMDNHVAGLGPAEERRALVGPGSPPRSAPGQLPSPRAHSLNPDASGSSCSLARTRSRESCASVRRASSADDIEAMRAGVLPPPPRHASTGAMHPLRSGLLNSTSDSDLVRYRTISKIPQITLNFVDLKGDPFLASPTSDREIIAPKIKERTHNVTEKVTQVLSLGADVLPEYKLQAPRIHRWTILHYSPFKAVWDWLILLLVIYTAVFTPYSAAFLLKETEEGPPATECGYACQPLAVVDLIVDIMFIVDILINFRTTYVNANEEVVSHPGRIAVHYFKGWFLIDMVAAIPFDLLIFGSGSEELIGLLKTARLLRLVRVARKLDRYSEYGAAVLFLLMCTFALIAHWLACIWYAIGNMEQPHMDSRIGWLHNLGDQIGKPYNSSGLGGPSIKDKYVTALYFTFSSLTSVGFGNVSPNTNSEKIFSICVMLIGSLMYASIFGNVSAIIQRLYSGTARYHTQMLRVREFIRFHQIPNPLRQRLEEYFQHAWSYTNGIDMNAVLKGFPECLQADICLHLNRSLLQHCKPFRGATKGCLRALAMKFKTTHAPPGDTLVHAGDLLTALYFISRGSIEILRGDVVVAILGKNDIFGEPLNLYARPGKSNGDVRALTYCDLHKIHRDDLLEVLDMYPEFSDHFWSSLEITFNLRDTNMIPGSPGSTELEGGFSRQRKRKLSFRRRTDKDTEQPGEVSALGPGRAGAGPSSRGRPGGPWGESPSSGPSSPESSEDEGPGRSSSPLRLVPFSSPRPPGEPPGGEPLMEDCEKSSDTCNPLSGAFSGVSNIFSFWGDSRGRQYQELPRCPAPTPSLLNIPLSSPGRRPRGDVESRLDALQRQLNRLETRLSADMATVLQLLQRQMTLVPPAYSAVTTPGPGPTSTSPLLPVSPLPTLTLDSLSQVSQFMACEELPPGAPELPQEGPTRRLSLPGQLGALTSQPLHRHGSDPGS

Compared with Cn1c(Sc2ccc(Cl)cc2)c(C=O)c2ccccc21, Cc1cn(CCOc2ccc(Cl)cc2)c(=O)[nH]c1=O is lower in “hERG current change (%, negative = inhibition) at 10uM” value: 7.61% for the first, -8.22% for the second.

Going from CCOc1ccc(S(=O)(=O)Nc2ccc(O)c(Sc3ncn[nH]3)c2)cc1 to COc1ccc(CCNS(=O)(=O)c2ccc(Br)cc2)cc1OC, the “hERG current change (%, negative = inhibition) at 10uM” value rises from 0.463% to 2.58%.

Compared with O=S(=O)([N-]c1nc2ccccc2nc1-n1cc[n+](Cc2ccccc2)c1)c1ccc(Br)cc1, Cc1ccc(S(=O)(=O)N(Cc2ccccc2)Cc2ccco2)cc1 is lower in “hERG current change (%, negative = inhibition) at 10uM” value: 18.4% for the first, 3.04% for the second.

First: CCn1nnnc1SCC(=O)c1ccc(C)cc1C
Second: Cc1cccc(-c2nc(CSc3nc4c(c(=O)[nH]3)CCC4)c(C)o2)c1
The “hERG current change (%, negative = inhibition) at 10uM” value of the first is lower: 6.95% for the first, 17.9% for the second.

Compared with O=C(Cc1ccccc1)NC(NCCCN1CCOCC1)(C(F)(F)F)C(F)(F)F, Cl.O=C(CCc1ccccc1)N1CCN(CCO)CC1 is higher in “hERG current change (%, negative = inhibition) at 10uM” value: 5.2% for the first, 12% for the second.

Compared with CCOCCCNC(=O)c1cccc(OC2CCN(S(C)(=O)=O)CC2)c1, COc1ccccc1C(=O)NCCCN1CCCC1=O is lower in “hERG current change (%, negative = inhibition) at 10uM” value: 12.6% for the first, 7.63% for the second.

Compared with CC(C)CCN1CC(O)=C(c2nc3ccccc3[nH]2)C1=N, CC(=O)N(CCc1ccccc1C)Cc1cc2ccc(C)cc2[nH]c1=O is lower in “hERG current change (%, negative = inhibition) at 10uM” value: -15.3% for the first, -18.3% for the second.

First: COc1cccc(CNc2ccc([N+](=O)[O-])cc2Cl)c1O
Second: COC(C(=O)Nc1cc([N+](=O)[O-])ccc1C)c1ccccc1 (stereo not shown)
The “hERG current change (%, negative = inhibition) at 10uM” value of the first is higher: 9.67% for the first, -18.7% for the second.

First: CCOC(=O)C(=O)/C(=C\N(C)C)c1onc(-c2c(F)cccc2Cl)c1C(=O)OC
Second: CCc1noc(C)c1C(=O)NCCc1ccc(Cl)cc1
The “hERG current change (%, negative = inhibition) at 10uM” value of the first is lower: -3.09% for the first, 13.6% for the second.

Compared with CCN(CC)S(=O)(=O)c1ccc(NC(=O)c2cccc3c2C(=O)N(CCOC)C3)cc1, COc1ccccc1N(C)S(=O)(=O)c1ccc(C(=O)OCC(=O)N(C(C)C)C(C)C)cc1 is lower in “hERG current change (%, negative = inhibition) at 10uM” value: -1.36% for the first, -35.7% for the second.

Going from CCOC(=O)c1[nH]c2ccc(Br)cc2c1NC(=O)CCN1CCCC(C)(C)C1 to CCOC(=O)N1CCN(C(=O)CN2C(=O)NC(C)(c3ccc4ccccc4c3)C2=O)CC1 (stereo not shown), the “hERG current change (%, negative = inhibition) at 10uM” value rises from -75.7% to -30.8%.

First: CCCC(=O)Nc1ccc(Nc2ccccc2)cc1
Second: O=C(CCc1ccccc1)Nc1ccc(F)c([N+](=O)[O-])c1
The “hERG current change (%, negative = inhibition) at 10uM” value of the first is lower: 7.75% for the first, 8.88% for the second.

First: CCCC(=O)Nc1ccccc1NC(=O)C1CCCCC1
Second: Cc1cc(OCC(=O)N2CCOCC2)ccc1NC(=O)C1CCCCC1
The “hERG current change (%, negative = inhibition) at 10uM” value of the first is higher: 13% for the first, 3.92% for the second.

Going from CN1CCN(c2ccc(NC(=S)NC(=O)/C=C/c3ccco3)cc2)CC1 to COc1ccc(C(=O)NC(=S)Nc2ccc(N3CCCC3)cc2)cc1, the “hERG current change (%, negative = inhibition) at 10uM” value rises from -7.96% to 33.8%.

Compared with CC(=O)C1=C(C)NC2=C(C(=O)c3ccccc32)C1c1ccccc1 (stereo not shown), O=C(Cn1cnc2c(nnn2Cc2ccccc2)c1=O)c1ccccc1 is lower in “hERG current change (%, negative = inhibition) at 10uM” value: 4.66% for the first, -8% for the second.

Compared with Nc1nc(COc2ccc(F)cc2)nc(N2CCCCC2)n1, COc1ccc(/C=C2\N=C3CCCN3C2=O)cc1 is lower in “hERG current change (%, negative = inhibition) at 10uM” value: 6.11% for the first, -6.43% for the second.

First: COc1ccc(NC(=O)/C(=C/c2ccc3c(c2)OCO3)NC(C)=O)cc1
Second: COc1ccc(NC(=O)C(CC(=O)O)Cc2ccc(Cl)cc2)cc1 (stereo not shown)
The “hERG current change (%, negative = inhibition) at 10uM” value of the first is higher: 14.3% for the first, 11.9% for the second.

Going from COc1ccc(OCCSc2nnc(CCNC(=O)c3ccc(OC)cc3)n2C)cc1 to COc1ccc(C(=O)N/N=C\c2coc3ccc(C)cc3c2=O)cc1, the “hERG current change (%, negative = inhibition) at 10uM” value rises from -6.83% to 14.7%.

Compared with Cc1ccc(NNC(=O)C(=O)N2CCCCC2)cc1, O=C(N/C(=C/c1ccc(Br)cc1)C(=O)N1CCCCC1)c1ccccc1F is lower in “hERG current change (%, negative = inhibition) at 10uM” value: 8.98% for the first, -40.7% for the second.

Compared with O=C(Nc1cccc(NC(=O)c2cc([N+](=O)[O-])ccc2Cl)n1)c1cc([N+](=O)[O-])ccc1Cl, Cc1ccc(NC(=O)c2cc3c(=O)oc4ccccc4c3s2)nc1 is higher in “hERG current change (%, negative = inhibition) at 10uM” value: -12.7% for the first, -11.1% for the second.

First: COc1ccc2c(=O)c3c(=O)n(Cc4ccco4)c(-c4cc(OC)c(OC)c(OC)c4)nc3oc2c1
Second: CCc1nn(C(CC)C(=O)NCc2cccc(OC)c2)c(=O)c2cc3occc3n12 (stereo not shown)
The “hERG current change (%, negative = inhibition) at 10uM” value of the first is higher: -16% for the first, -32.9% for the second.

Going from O=C(CN(C1CCCCC1)S(=O)(=O)c1ccc(Br)cc1)NCc1ccncc1 to O=C(NCc1ccco1)C1CCCCN1S(=O)(=O)c1ccc(F)cc1 (stereo not shown), the “hERG current change (%, negative = inhibition) at 10uM” value rises from -72.9% to -2.24%.

Going from CCCc1cc(=O)oc2c(C)c(OCC(=O)NC3CCN(Cc4ccccc4)CC3)ccc12 to CCc1cc2c(-c3ccccc3)cc(=O)oc2cc1OCC(=O)NCC1CCC(C(=O)O)CC1 (stereo not shown), the “hERG current change (%, negative = inhibition) at 10uM” value rises from -51.4% to 4.69%.

Going from CCCN(C(=O)COc1ccc(Cl)cc1Cl)c1c(N)n(Cc2ccccc2)c(=O)[nH]c1=O to CCOC(=O)N1CCN(C(=O)c2ccc3c(c2)NC(=O)/C(=C/c2ccccc2)S3)CC1, the “hERG current change (%, negative = inhibition) at 10uM” value rises from -37.9% to -17.8%.

Going from Cn1cccc1C(=O)OCC(=O)Nc1cc(C(C)(C)C)nn1-c1ccccc1 to CC(C)(C)CC(=O)Nc1cccc(-c2cn3cccnc3n2)c1, the “hERG current change (%, negative = inhibition) at 10uM” value rises from -29.2% to -18.1%.

Going from C#C[C@]1(O)CC[C@H]2[C@@H]3CCC4=C(CCC(=O)C4)[C@H]3CC[C@@]21C to O=C(CN1CCC(O)(c2ccc3c(c2)OCO3)CC1)NC1CCCCC1, the “hERG current change (%, negative = inhibition) at 10uM” value falls from 14.8% to 3.07%.

Going from N#CCC(CNc1ncc(C(F)(F)F)cc1Cl)OC(=O)c1cccc([N+](=O)[O-])c1 (stereo not shown) to CC(C)(C)c1nnc(NC(=O)Cc2ccccc2[N+](=O)[O-])s1, the “hERG current change (%, negative = inhibition) at 10uM” value rises from -47.8% to -26.8%.

Compared with O=C(CC1C(=O)NCCN1C(=O)Nc1ccc(F)cc1F)Nc1cc(Cl)ccc1Cl (stereo not shown), O=C(COc1ccc2ccc(=O)oc2c1)NCCc1c[nH]c2ccc(F)cc12 is higher in “hERG current change (%, negative = inhibition) at 10uM” value: -1.87% for the first, 19.8% for the second.

Going from COc1ccc(C(CC(=O)NCCN2CCOCC2)NS(=O)(=O)c2ccc(C)cc2)cc1 (stereo not shown) to COc1ccc(NC(=S)N(CCN2CCOCC2)Cc2ccccc2F)cc1, the “hERG current change (%, negative = inhibition) at 10uM” value falls from 5.28% to -10.7%.

Going from O=C(O)c1c2c(nc3ccc(S(=O)(=O)N4CCC(C(=O)NCc5ccccc5Cl)CC4)cc13)CCCC2 to Cc1[nH]c(C)c(S(=O)(=O)N2CCN(c3ccccc3)CC2)c1C(=O)N1CCCCC1, the “hERG current change (%, negative = inhibition) at 10uM” value rises from -5.66% to 6.19%.

Going from Nc1nc2c(F)c(F)c(F)cc2s1 to Fc1ccc2nc(Nc3nc4c(s3)CCCC4)sc2c1, the “hERG current change (%, negative = inhibition) at 10uM” value falls from 29% to 3.62%.

First: N#Cc1ccccc1OCC(=O)Nc1ccc(N2CCOCC2)cc1N1CCOCC1
Second: CN1CCN(CCc2nc3cc(NC(=O)COc4ccccc4)ccc3n2C)CC1
The “hERG current change (%, negative = inhibition) at 10uM” value of the first is higher: -22.7% for the first, -32.6% for the second.

Compared with COCCNC(=O)CN(C(=O)Cn1nnc2ccccc21)c1ccc(C)cc1, NS(=O)(=O)c1ccc(CCNC(=O)C(=O)C2C(=O)Nc3ccccc32)cc1 (stereo not shown) is lower in “hERG current change (%, negative = inhibition) at 10uM” value: 31% for the first, -7.71% for the second.

First: CC1CN=C(Nc2cccc3ccccc23)S1 (stereo not shown)
Second: N#CC1=C(N)Oc2c(c(=O)sc3ccccc23)C1c1cccnc1 (stereo not shown)
The “hERG current change (%, negative = inhibition) at 10uM” value of the first is lower: -10.7% for the first, 11% for the second.

Compared with CCCc1ccc(-c2cc(C(=O)N3CCN(c4ccccn4)CC3)c3ccccc3n2)cc1, COc1cccc(OCC(O)CN2CCN(c3ccccc3)CC2)c1 (stereo not shown) is lower in “hERG current change (%, negative = inhibition) at 10uM” value: 13.4% for the first, -45.2% for the second.

First: CCCOc1ccccc1NC(=O)/C=C/C(N)=O
Second: Cc1ccccc1[C@@H](NC(=O)OC(C)(C)C)C(=O)OC(C)(C)C
The “hERG current change (%, negative = inhibition) at 10uM” value of the first is higher: 5.16% for the first, 1.92% for the second.

Compared with Cc1ccc(C)c(NC(=S)Nc2cccnc2)c1, Cc1cccc(NC(=O)CNC(=O)c2ccco2)n1 is lower in “hERG current change (%, negative = inhibition) at 10uM” value: 10.7% for the first, 7.23% for the second.

Going from CC1(C)c2cc(O)ccc2OC1N1CCOCC1 (stereo not shown) to CC1CCN(C(=S)Nc2ccc(F)cc2)CC1, the “hERG current change (%, negative = inhibition) at 10uM” value falls from 13.6% to 3.1%.

First: O=C(CSc1nc2[nH]ncc2c(=O)[nH]1)Nc1nccs1
Second: COc1ccc(CN2CCN(C(=O)CCC(=O)Nc3nnc(C4CCCCC4)s3)CC2)cc1F
The “hERG current change (%, negative = inhibition) at 10uM” value of the first is higher: 2.49% for the first, -50.2% for the second.

First: CCOC(=O)C1(CCOC)CCN(Cc2ccc(C(=O)OC)cc2)CC1
Second: CCN1CCN(Cc2ccc(NC(=O)c3cc(NC(=O)c4cc5cccc(OC)c5o4)cc(OC)c3)cc2C(F)(F)F)CC1
The “hERG current change (%, negative = inhibition) at 10uM” value of the first is lower: -27.2% for the first, 8.13% for the second.

First: COCCn1c(C)cc(C(=O)CN2CCCCC2)c1C.O=C(O)C(=O)O
Second: CC1CCN(C(=O)COC(=O)CSc2ccc(C(N)=O)cc2[N+](=O)[O-])CC1
The “hERG current change (%, negative = inhibition) at 10uM” value of the first is higher: 35.8% for the first, -5.38% for the second.

Going from [N-]=[N+]=CC(=O)OC[C@H](N)C(=O)O to CCOC(=O)C1=NOC2COC3(CCN(c4ncccn4)CC3)OCC12 (stereo not shown), the “hERG current change (%, negative = inhibition) at 10uM” value falls from 10.8% to 8.23%.

Compared with CCCNC(=O)C1CC(c2cccc(F)c2)=NO1 (stereo not shown), CCOC(=O)N1CCN(c2cc(=O)n(-c3cccc(C)c3)c(=O)[nH]2)CC1 is lower in “hERG current change (%, negative = inhibition) at 10uM” value: -3.13% for the first, -10.7% for the second.

Going from CCn1c(-c2ccncc2)n[nH]c1=S to CC(C)Nc1nnc(SC(C)C(=O)NCc2ccc3c(c2)OCO3)s1 (stereo not shown), the “hERG current change (%, negative = inhibition) at 10uM” value falls from 14.6% to 8.53%.
